# Laboratory results taken from article PMC4336329 (PLoS ONE, 2015).
# The whole screen tested about 310,000 compounds, of which about 14,000 (4.5%) showed an effect of 50% or more. The effect is printed as a negative number. Some of the results follow.
# Molecular target: human ether-à-go-go-related gene (hERG) potassium channel (human, UniProt Q12809)
# Assay: primary screen, population patch clamp on CHO cells stably expressing hERG
# 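Further: peak tail current of the secondary pulse compared with the same well before compound.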
# Sequence of human ether-à-go-go-related gene (hERG) potassium channel (Q12809 whole entry, looked up): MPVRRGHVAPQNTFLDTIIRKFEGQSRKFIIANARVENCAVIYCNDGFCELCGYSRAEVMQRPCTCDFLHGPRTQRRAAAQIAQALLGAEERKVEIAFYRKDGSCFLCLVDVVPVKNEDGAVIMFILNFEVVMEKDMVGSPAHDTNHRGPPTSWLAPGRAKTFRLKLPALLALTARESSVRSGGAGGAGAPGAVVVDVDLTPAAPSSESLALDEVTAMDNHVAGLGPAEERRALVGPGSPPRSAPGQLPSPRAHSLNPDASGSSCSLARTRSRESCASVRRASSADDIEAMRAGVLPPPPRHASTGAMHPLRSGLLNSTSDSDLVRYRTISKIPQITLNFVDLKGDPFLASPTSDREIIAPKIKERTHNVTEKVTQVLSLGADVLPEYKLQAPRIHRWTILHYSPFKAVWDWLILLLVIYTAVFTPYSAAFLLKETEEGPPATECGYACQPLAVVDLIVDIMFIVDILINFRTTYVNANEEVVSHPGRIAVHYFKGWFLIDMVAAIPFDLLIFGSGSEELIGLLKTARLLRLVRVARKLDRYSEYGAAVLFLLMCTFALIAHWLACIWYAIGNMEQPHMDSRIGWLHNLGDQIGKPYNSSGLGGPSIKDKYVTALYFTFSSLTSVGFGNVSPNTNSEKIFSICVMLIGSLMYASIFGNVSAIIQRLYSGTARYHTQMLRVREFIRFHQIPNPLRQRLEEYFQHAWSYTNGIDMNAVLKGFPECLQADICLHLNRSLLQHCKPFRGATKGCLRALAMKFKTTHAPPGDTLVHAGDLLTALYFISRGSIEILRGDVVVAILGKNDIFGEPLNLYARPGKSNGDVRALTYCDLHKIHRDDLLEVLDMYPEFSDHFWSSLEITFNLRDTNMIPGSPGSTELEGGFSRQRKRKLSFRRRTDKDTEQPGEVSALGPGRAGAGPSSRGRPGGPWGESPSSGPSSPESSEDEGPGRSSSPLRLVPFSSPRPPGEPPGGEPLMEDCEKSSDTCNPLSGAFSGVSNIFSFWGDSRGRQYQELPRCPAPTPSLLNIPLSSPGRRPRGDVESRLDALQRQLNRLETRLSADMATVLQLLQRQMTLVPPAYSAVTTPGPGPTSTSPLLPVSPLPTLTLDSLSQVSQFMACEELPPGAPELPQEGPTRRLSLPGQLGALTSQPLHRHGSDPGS
row,SMILES,"hERG current change (%, negative = inhibition) at 10uM [%]"
1,COCCN(C)Cc1cn(-c2ccc(F)cc2F)nc1-c1ccccc1C,-24.7
2,O=c1[nH]c2ccccc2nc1Cc1ccc([N+](=O)[O-])cc1,-17.6
3,O=C(CNC(=O)c1ccccc1F)OCCOc1cccc(Cl)c1,-6.3
4,COc1ccc(-c2ccnc(-c3ccncc3)n2)cc1,-4.35
5,CC(C)OCC(O)CN1CC2C[C@@H](C1)Cn1c2cccc1=O (stereo partly shown),16.8
6,CCc1ccc(NC(=O)C(C)OC(=O)C2CCC(=O)N2)cc1 (stereo not shown),20.9
7,COC(=O)CN1C(=O)Nc2ccc(Br)cc2C1c1ccccc1Cl (stereo not shown),-7.82
8,O=C(c1ccc(Cl)cc1)c1ccccc1C(=O)N1CCOCC1,-1.18
9,CCOc1cc(NC(=S)NCCCN2CCOCC2)c(OCC)cc1NC(=O)c1ccco1,-20.8
10,COc1ccc(OC)c(NC(=O)COc2coc(CN3CCc4ccccc43)cc2=O)c1,-9.41
11,CC(=O)n1cc([C@@H]2C=C(C(=O)NCc3ccccc3)O[C@H](OCc3ccc(CO)cc3)C2)c2ccccc21,-26.6
12,COc1ccc(C2(C)NC(=O)N(CC(=O)c3cc(C)n(C4CC4)c3C)C2=O)cc1 (stereo not shown),-24.6
13,Cc1nccn1CC1CCc2c(c3ccccc3n2C)C1=O.Cl (stereo not shown),-28.4
14,COc1ccc(S(=O)(=O)N2CCCCCC2)cc1C(=O)N(C)Cc1ccc(C)cc1,-40.3
15,COCCNC(=O)C(c1ccc(Cl)cc1)N(CCOC)C(=O)CCC(=O)Nc1nccs1 (stereo not shown),-4.36
16,CC(Cc1cccs1)NC(=S)Nc1ccc(F)cc1 (stereo not shown),5.11
17,CC(C)CNS(=O)(=O)c1ccc(CCC(=O)NCCc2ccccc2)cc1,-3.94
18,CC(C)(CO)NS(=O)(=O)c1ccc2c(c1)Cc1cc(S(=O)(=O)NC(C)(C)CO)ccc1-2,12.8
19,CC(NC(=O)c1ccc(CS(C)(=O)=O)cc1)c1ccc(-n2ccnc2)cc1 (stereo not shown),-1.32
20,O=C(Cc1cccs1)NCCN1CCOCC1,3.99
21,O=C(Nc1ccccc1)Nc1cccc(-c2nnco2)c1,12.9
22,Nc1cc(N)nc(SCC(=O)Nc2ccccc2)n1,3.53

row,SMILES,"hERG current change (%, negative = inhibition) at 10uM [%]"
1,CCOP(=O)(OCC)C(NC(=O)c1cccc([N+](=O)[O-])c1)C(Cl)(Cl)Cl (stereo not shown),12.2
2,Cc1cccc(-n2ncc3c(NCCCO)ncnc32)c1,3.14
3,Cc1ccccc1-n1c(C)c(C#N)c(=O)c(-[n+]2ccccc2)c1[S-],23.4
4,O=C(OCc1ccccc1)/C(=C/c1cccc(Br)c1)NC(=O)c1ccco1,-52.5
5,CCOC(=O)c1[nH]c2cc(OC)c(OC)cc2c1N,3.6
6,CCOCCCNC(=O)CN1C(=O)c2ccccc2Sc2ncccc21,6.05
7,Cc1cccc(N=C(N2CCOCC2)P(=O)(N2CCOCC2)N2CCOCC2)c1,7.67
8,CCN1CCC(N2CCN(c3ccccc3OC)CC2)CC1,11.7
9,O=C(Nc1cc([N+](=O)[O-])ccc1F)C1CC1,-4.7
10,COc1ccc(NC(=S)N2CCN(C(c3ccccc3)c3ccccc3)CC2)cc1OC,0.949
11,CN(C)S(=O)(=O)c1cccc(C(=O)NCCNC(=O)c2cccc(S(=O)(=O)N(C)C)c2)c1,15.9
12,COc1ccc(/C=N/NC(=O)C(=O)Nc2ccccn2)cc1OC,-27.2
13,CCn1c(COc2cccc3cccnc23)nnc1SCC(=O)O,7.93
14,COC(=O)C1=C(C)N2C(=O)CSC2=NC1c1ccc2c(c1)OCO2 (stereo not shown),-7.09
15,CCOC(=O)c1[nH]c2ccc(Br)cc2c1NC(=O)CCN1CCCC(C)C1 (stereo not shown),-73.1
16,Cn1c(N)c(C(=O)COC(=O)CCC(=O)c2cccs2)c(=O)n(C)c1=O,-13.7
17,CC(C)c1nnc(NC(=O)C2CCCN2C(=O)Nc2cccc(Cl)c2)s1 (stereo not shown),-18
18,CCOc1ccc(/C=C2\SC(=S)N(CCC(=O)Nc3ccccc3C(=O)O)C2=O)cc1,15.4
19,O=C(Cc1c(Cl)cccc1Cl)OCC(=O)N1CCc2ccccc2C1,-13.7
20,CCc1nn2c(=O)cc(COc3ccc(NC(=O)c4ccco4)cc3)nc2s1,-6.11
21,Cc1ccccc1C(=O)N=c1sccn1C,24.7
22,CC(=O)Nc1ccc(S(=O)(=O)Nc2cc(C)ccn2)cc1,11.5

row,SMILES,"hERG current change (%, negative = inhibition) at 10uM [%]"
1,Cc1cc(C(=O)NC2CCCN(Cc3ccc(Cl)cc3)C2)n(C)n1 (stereo not shown),-16
2,Nn1c(SCc2ccccc2)nc2c(cnn2-c2ccccc2)c1=O,-3.57
3,N#CC1(c2ccccc2)CCCN1C(=O)c1ccco1 (stereo not shown),-12
4,CC(C)(C)OC(=O)N1CCC[C@@H]1CO,-8
5,Cc1ccc(-n2nc3c(c2NC(=O)c2cccs2)CSC3)cc1,7.81
6,CS(=O)(=O)c1ccc(-c2nnn(CC(=O)N3CCCCC3)n2)cc1,21.1
7,Cc1ccc2c(c1)C1CN(C)CCC1N2C(=O)c1ccco1 (stereo not shown),-7.26
8,Cc1ccc(/C=N/NC(=O)Cn2cncn2)cc1,24.4
9,COc1ccc(C2=Nn3c(nnc3-c3ccccc3)SC2)cc1OC,7.08
10,CC(=O)Nc1ccc(N2C(C(C)=O)=NN(c3ccc(Cl)cc3)C2c2sccc2C)cc1 (stereo not shown),4.29
11,Cc1ccc(CCC(=O)Nc2ccc([N+](=O)[O-])cc2)o1,0.967
12,COc1cc(C#Cc2c(-c3cncn3C)n(C)c3ccc(-c4ccc(OC)c(OC)c4)cc23)cc(OC)c1,-1.2
13,CN(C(=O)c1cnc2n(c1=O)CCS2)C1CCCCC1,24.6
14,CCOC(=O)C1CCCN(c2c(NCC3CCCO3)c(=O)c2=O)C1 (stereo not shown),9.66
15,CCCC(C)n1[nH]c(=O)c2c1NC(=O)CSC2c1ccc(OC)c(OC)c1 (stereo not shown),15.4
16,CCOC(=O)CNC(=O)CN1C(=O)CCS(=O)(=O)c2ccccc21,12.3
17,CCCC(NC(=O)Cc1c(C)c2cc3c(C)c(C)oc3c(C)c2oc1=O)C(=O)N[C@@H](Cc1ccccc1)C(=O)O (stereo partly shown),-1.16
18,O=C(CSc1n[nH]c(-c2ccccc2)n1)c1ccccc1,7.43
19,Cc1nc([N+](=O)[O-])c(C(=O)OCc2ccccc2)n1C,19
20,CCn1c(=O)cc(OCC(=O)Nc2ccccc2N2CCN(C)CC2)c2ccccc21,-58.3
21,Nn1cc(-c2ccccc2)nc1SCC(=O)NCCc1ccccc1,6.04
22,CCCCc1cc(=O)oc2cc(C)cc(OCC(=O)NCc3ccccn3)c12,-56.4

row,SMILES,"hERG current change (%, negative = inhibition) at 10uM [%]"
1,CC1=NN(c2ccccc2)C(=O)/C1=C\c1sccc1C,-9.78
2,O=C(COc1ccc2c(c1)C(=O)CC1(CCCCC1)O2)NCc1ccccc1,0.962
3,CCOC(=O)N1CCC(N2Cc3cccc(C(=O)NCc4ccccc4OC)c3C2=O)CC1,-71.2
4,COc1cc(/C=C/C(=O)c2ccccc2O)cc(OC)c1OC,5.27
5,CCN(Cc1ccccc1)S(=O)(=O)CCNC(=O)c1ccc(OC)cc1,5.23
6,Cc1ccc(NS(=O)(=O)c2ccc(Cl)c(C(=O)Nc3ccccc3-c3nc4ccccc4[nH]3)c2)cc1C,17.2
7,NC(=O)c1ccc[n+](Cc2ccccc2)c1.[I-],1.43
8,N#Cc1cccc(CSc2ncnc(N)n2)c1,12.4
9,O=C(CC1SCCNC1=O)Nc1ccccc1Cl (stereo not shown),21.2
10,N=C1C(c2nc3ccccc3s2)=C(O)CN1Cc1ccco1,1.81
11,COc1ccc(/C=C/C(=O)c2c(O)cc(C)oc2=O)c(OC)c1,0.141
12,Cc1nc(SCC(=O)NCc2ccc3c(c2)OCO3)c(C#N)c2c1CCCC2,-11.5
13,CC(=O)Nc1scc(-c2ccccc2)[n+]1-c1ccc(C)cc1.[Br-],1.06
14,Cc1ccc(S(=O)(=O)c2c(C)nn(C(C)(C)C)c2OC(=O)C(C)C)cc1,0.648
15,CCCCCCNC(=O)c1c(O)c2ccccc2[nH]c1=O,19.9
16,COCCC(=O)N1CCC(Oc2ccc(C(=O)N(C)Cc3cc(C)no3)cc2)CC1,-0.507
17,O=C(N/N=C/c1ccccc1C(=O)O)c1ccc(COc2cccc3cccnc23)cc1,4.17
18,NC(=O)c1ccc([N+](=O)[O-])cc1SCc1ccccc1,-5.14
19,COc1cc(C(=O)NCC2(c3ccccc3)CCCC2)cc(OC)c1OC,-1.94
20,CCCCOc1ccc(C(C)NC(=O)CCS(=O)(=O)Cc2ccccc2F)cc1 (stereo not shown),6.59
21,Cc1ccc(-n2nc3c(=O)n(CC(=O)NCc4ccccn4)nc(C)c3c2C)cc1,-20.6
22,Cc1cc(C)cc(NC(=S)NCCN(C2CCCCC2)C2CCCC2)c1,-69.6
